# Measured values as given in publication PMC4336329 (PLoS ONE, 2015).
# Screen size: about 310,000 compounds; about 14,000 (4.5%) showed an effect of 50% or more. The effect is printed as a negative number. The list shows a part of the results.
# Target: human ether-à-go-go-related gene (hERG) potassium channel (human, UniProt Q12809)
# Assay: primary screen, population patch clamp on CHO cells stably expressing hERG
# 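Further: peak tail current of the secondary pulse compared with the same well before compound.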
# human ether-à-go-go-related gene (hERG) potassium channel, sequence (Q12809 whole entry, looked up): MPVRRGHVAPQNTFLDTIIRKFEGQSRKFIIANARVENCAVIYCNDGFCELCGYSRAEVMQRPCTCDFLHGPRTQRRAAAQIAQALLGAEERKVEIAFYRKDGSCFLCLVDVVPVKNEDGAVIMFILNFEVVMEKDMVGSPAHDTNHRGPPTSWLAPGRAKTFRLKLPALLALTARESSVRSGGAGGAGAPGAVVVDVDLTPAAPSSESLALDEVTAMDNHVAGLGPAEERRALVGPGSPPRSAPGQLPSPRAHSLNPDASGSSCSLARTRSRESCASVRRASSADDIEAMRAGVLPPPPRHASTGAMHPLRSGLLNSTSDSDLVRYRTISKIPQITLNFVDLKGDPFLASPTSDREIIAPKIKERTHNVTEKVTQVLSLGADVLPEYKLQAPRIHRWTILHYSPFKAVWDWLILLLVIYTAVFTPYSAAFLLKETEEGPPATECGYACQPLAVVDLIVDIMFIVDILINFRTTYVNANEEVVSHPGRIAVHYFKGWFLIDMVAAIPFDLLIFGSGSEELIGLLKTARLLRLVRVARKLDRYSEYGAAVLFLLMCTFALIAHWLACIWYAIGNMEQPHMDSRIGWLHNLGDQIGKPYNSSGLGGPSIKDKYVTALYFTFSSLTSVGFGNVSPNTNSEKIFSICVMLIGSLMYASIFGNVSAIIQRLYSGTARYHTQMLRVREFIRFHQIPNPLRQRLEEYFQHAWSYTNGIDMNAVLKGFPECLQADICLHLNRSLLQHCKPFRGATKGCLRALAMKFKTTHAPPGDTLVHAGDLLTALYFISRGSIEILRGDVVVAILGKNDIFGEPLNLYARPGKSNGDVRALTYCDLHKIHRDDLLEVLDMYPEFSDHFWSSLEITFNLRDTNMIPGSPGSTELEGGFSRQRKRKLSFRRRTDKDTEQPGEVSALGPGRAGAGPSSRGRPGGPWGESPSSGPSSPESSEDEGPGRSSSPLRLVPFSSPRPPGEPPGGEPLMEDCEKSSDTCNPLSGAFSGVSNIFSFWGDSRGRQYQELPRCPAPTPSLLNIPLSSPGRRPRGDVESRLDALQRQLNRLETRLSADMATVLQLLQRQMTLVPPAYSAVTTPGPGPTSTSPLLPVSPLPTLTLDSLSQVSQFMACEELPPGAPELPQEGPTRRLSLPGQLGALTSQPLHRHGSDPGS
row,SMILES,"hERG current change (%, negative = inhibition) at 10uM [%]"
1,Cc1cc(C)cc(NC(=S)Nc2ccc(Cl)c(Cl)c2)c1,12.6
2,CNC(=O)CC(CC(=O)c1ccccc1)c1ccccc1 (stereo not shown),10
3,O=C(Nc1nccs1)c1ccc(S(=O)(=O)N2CCCCC2)cc1,3.29
4,CCc1c(O)c(/C(C)=N\O)c(=O)n(-c2ccccc2)c1-c1ccccc1,6.42
5,Cc1ccc(C(=O)N/C(=C/c2cccs2)C(=O)N2CCCCCC2)cc1,-46
6,COc1ccc2[nH]c(=O)c(CN(C(=O)NC3CCCCC3)C3CCCCC3)cc2c1,-12.9
7,CCCC[n+]1ccn(-c2nc3c([N+](=O)[O-])cccc3n2C)c1.[I-],8.72
8,O=C(NCc1cccs1)c1nc2c(nnn2Cc2ccc(F)cc2)c(=O)[nH]1,-13.3
9,Cc1ccc(C(=O)OCC(=O)NC2CC2)cc1S(=O)(=O)N1CCOCC1,11.1
10,CCn1c(CNC(=O)c2ccco2)nnc1SCC(=O)c1ccccc1,9.27
11,Cc1cccc(C(=O)Nc2ccc(C(=O)N/N=C/c3ccc(C)o3)cc2)c1,-13.2
12,C=CCNC(=O)c1ccc(C)cc1Cl,-16.7
13,COc1ccc(CN(C(=O)CNC(=O)c2ccco2)C(C(=O)NCC2CCCO2)c2ccc(OC)c(OC)c2)cc1 (stereo not shown),14.3
14,O=C(O)C1C2CCC(O2)C1C(=O)Nc1ccc(F)c(Cl)c1 (stereo not shown),24.7
15,Cc1ccc(-c2noc(C3CCCN(C(=O)c4cccc(Cl)c4)C3)n2)o1 (stereo not shown),-43.4
16,COc1ccc(C(=O)C[n+]2ccc3c(c2)nnn3-c2ccccc2)cc1.[Br-],-60.5
17,O=C(CSc1ncnc2c1oc1ccccc12)Nc1cccc(C(F)(F)F)c1,11
18,CCCOc1ccc(-c2nnn(CC(=O)c3ccc4c(c3)OCCO4)n2)cc1,14.8
19,COCC1CCN(Cc2cn[nH]c2-c2ccc(OC)c(F)c2)C1 (stereo not shown),-4.22
20,CNC(=S)N(Cc1cccs1)Cc1cc2cc(OC)c(OC)cc2[nH]c1=O,-43.7
21,COc1ccc(C(=O)n2nc(C)cc2Nc2ccccc2)cc1,1.61
22,CN1CCN(C(=O)C2C3C=CC(C3)C2C(=O)O)CC1 (stereo not shown),4.89
23,CCc1ccc(Oc2ncnc(N)c2[N+](=O)[O-])cc1,15.8
24,COc1ccc(-c2ccc(CCC(=O)O)n2-c2ccccc2O)cc1,18.3
25,C[C@@H]1CCC[C@@]2(O[C@@H](CCO)C[C@@H](O)[C@@H]2O)O1,2.06
26,CCn1c(=O)n(CC)c2cc(N3CCCC3)c(NC(=O)c3cccc(Cl)c3)cc21,3.07
27,COc1ccc(CCn2c(O)c(C=Nc3ccccc3F)c(=O)[nH]c2=O)cc1OC,20.3
28,CNc1nc(N)c([N+](=O)[O-])c(NCc2ccccc2)n1,-1.09

row,SMILES,"hERG current change (%, negative = inhibition) at 10uM [%]"
1,CC1NC(=O)NC1CCCCC(=O)O (stereo not shown),-8.16
2,CCC(Cc1ccccc1)NS(=O)(=O)c1ccc2c(c1)NC(=O)CO2 (stereo not shown),-2.42
3,CCC1(C)Cc2ccccc2-c2[nH][nH]c(=O)c21 (stereo not shown),22.7
4,CN(C)c1nc(SCC(=O)Nc2ccc(Cl)c(Cl)c2)nc(N2CCOCC2)n1,-3.51
5,CCC1(CC)C(=O)C2=C3C1[C@H](C(=O)OC)C=C(C(=O)OC)C[C@H]3[C@H]1C(=O)N(CC(=O)OC)C(=O)[C@H]1[C@H]2C (stereo partly shown),5.84
6,BrC(/C=N/N1CCN(Cc2ccccc2)CC1)=C/c1ccccc1,-4
7,CC(C)C(=O)OC1CCS(=O)(=O)c2sccc21 (stereo not shown),19.9
8,O=C(O)C(=O)O.OC(CNCC1COc2ccccc2O1)COCc1cccs1 (stereo not shown),-49.8
9,COc1ccc(Oc2cc(C)nc(Cl)n2)nn1,21.3
10,COc1ccc(C)cc1S(=O)(=O)NCC(c1cccnc1)N1CCc2ccccc2C1 (stereo not shown),-25.3
11,Cc1ccccc1OCC(=O)N/N=C/c1ccco1,13.3
12,COc1cc(C2CC(=O)N3CN(c4ccccc4C)CSC3=C2C#N)cc(OC)c1OC (stereo not shown),3.31
13,O=C(COC(=O)c1cccc(-n2cnnn2)c1)c1ccc(F)cc1,-0.561
14,O=C(c1ccc2c3c(cccc13)CC2)C1CCCN(C(=O)c2ccc[n+]([O-])c2)C1 (stereo not shown),-18
15,CC(NC(C)c1ccccc1Cl)C(=O)Nc1cccc(S(=O)(=O)N2CCCCC2)c1 (stereo not shown),1.12
16,CC(=O)NCc1ccc(S(=O)(=O)N/N=C/c2ccccc2)cc1,18.7
17,CC(C)(C)c1cc(CN2CCN(CCO)CC2)cc(C(C)(C)C)c1O,-19
18,O=C1c2ccccc2C(O)(Cc2ccccc2)N1c1ccc2c(c1)OCO2 (stereo not shown),10.8
19,Cc1ccc[n+](CC2OCc3ccccc3CO2)c1.[Br-],2.24
20,COc1ccc(N2CCN(C(=O)c3ccc(Br)cc3)CC2)c([N+](=O)[O-])c1,-72.3
21,COCCn1c(O)c(/C=N/NC(=O)CSC(=S)N2CCCC2)c(=O)[nH]c1=S,7.28
22,CCSc1nnc(NC(=O)c2cnccn2)s1,11.5
23,CC1(C)Cc2nc3sc4c(N(CCO)CCO)nnnc4c3cc2CO1,-3.74
24,O=C(NC(=S)Nc1ccc(NC(=O)c2ccccc2)cc1)c1ccc(F)cc1,8.25
25,COc1ccc(C(C(=O)NC2CCCCC2)N(C(=O)Cc2c[nH]c3ccccc23)c2ccccc2)cc1OC (stereo not shown),9.86
26,Cc1ccc(S(=O)(=O)Nc2ccccc2N(C)S(=O)(=O)c2ccc(C)cc2)cc1,0.237
27,COc1ccc(CC(=O)OCc2cc3cccc(C)c3[nH]c2=O)cc1,-0.363
